Source: US7972854

Assays:
[1] = biological target: 5-10 (E490K) mutant ZFP/FokI fusion protein

B1: 5-8 ZFP/FokI fusion protein (wild-type FokI cleavage half-domain) (protein)
chain: MAPKKKRKVGIHGVPAAMAERPFQCRICMRNFSRSDNLSEHIRTHTGEKPFACDICGRKFARNAHRINHTKIHTGSQKPFQCRICMRNFSRSDTLSEHIRTHTGEKPFACDICGRKFAARSTRTTHTKIHLRQKDAARGSQLVKSELEEKKSELRHKLKYVPHEYIELIEIARNSTQDRILEMKVMEFFMKVYGYRGKHLGGSRKPDGAIYTVGSPIDYGVIVDTKAYSGGYNLPIGQADEMQRYVEENQTRNKHINPNEWWKVYPSSVTEFKFLFVSGHFKGNYKAQLTRLNHITNCNGAVLSVEELLIGGEMIKAGTLTLEEVRRKFNNGEINF
[1]
  DNA cleavage: Specific

B2: 5-10 ZFP/FokI fusion protein (wild-type FokI cleavage half-domain) (protein)
chain: MAPKKKRKVGIHGVPAAMAERPFQCRICMRNFSRSDSLSRHIRTHTGEKPFACDICGRKFADSSNRKTHTKIHTGGGGSQKPFQCRICMRNFSRSDSLSVHIRTHTGEKPFACDICGRKFADRSNRITHTKIHLRQKDAARGSQLVKSELEEKKSELRHKLKYVPHEYIELIEIARNSTQDRILEMKVMEFFMKVYGYRGKHLGGSRKPDGAIYTVGSPIDYGVIVDTKAYSGGYNLPIGQADEMQRYVEENQTRNKHINPNEWWKVYPSSVTEFKFLFVSGHFKGNYKAQLTRLNHITNCNGAVLSVEELLIGGEMIKAGTLTLEEVRRKFNNGEINF
other
  DNA cleavage: Non-specific
